According to a compilation of properties of binary mixtures (doi:10.1016/j.molliq.2022.118621):
The densities may have been worked out from excess volumes.

Assay: xn = mol fraction of the nth substance listed
Conditions: 100 kPa

Compound `CC(=O)[O-].CCOCCn1cc[n+](C)c1` + O has a mass density (288.15 K, x1 = 0.8294) of 1106.2 kg/m3, a mass density (288.15 K, x1 = 0.852) of 1106.3 kg/m3 and a mass density (288.15 K, x1 = 0.8822) of 1106.5 kg/m3. The mass density (288.15 K, x1 = 0.9125) was 1106.7 kg/m3, the mass density (288.15 K, x1 = 0.9447) was 1106.8 kg/m3 and the mass density (288.15 K, x1 = 1) was 1107.1 kg/m3. The mass density (293.15 K, x1 = 0.8294) was 1102.8 kg/m3, the mass density (293.15 K, x1 = 0.852) was 1102.9 kg/m3 and the mass density (293.15 K, x1 = 0.8822) was 1103 kg/m3. The mass density (293.15 K, x1 = 1) was 1103.6 kg/m3, the mass density (298.15 K, x1 = 0.8294) was 1099.2 kg/m3 and the mass density (298.15 K, x1 = 0.852) was 1099.4 kg/m3. The mass density (298.15 K, x1 = 0.8822) was 1099.5 kg/m3, the mass density (298.15 K, x1 = 0.9125) was 1099.7 kg/m3 and the mass density (298.15 K, x1 = 1) was 1100.1 kg/m3. The mass density (303.15 K, x1 = 0.8294) was 1095.8 kg/m3, the mass density (303.15 K, x1 = 0.852) was 1095.9 kg/m3 and the mass density (303.15 K, x1 = 0.8822) was 1096.1 kg/m3. It also gave a mass density (303.15 K, x1 = 0.9125) of 1096.2 kg/m3, a mass density (303.15 K, x1 = 1) of 1096.6 kg/m3 and a mass density (308.15 K, x1 = 0.8294) of 1092.3 kg/m3. For the same compound, the mass density (308.15 K, x1 = 0.852) was 1092.4 kg/m3, the mass density (308.15 K, x1 = 0.9125) was 1092.7 kg/m3 and the mass density (308.15 K, x1 = 0.9447) was 1092.9 kg/m3. For the same compound, the mass density (308.15 K, x1 = 1) was 1093.2 kg/m3, the mass density (313.15 K, x1 = 0.8294) was 1088.8 kg/m3 and the mass density (313.15 K, x1 = 0.9125) was 1089.2 kg/m3. For the same compound, the mass density (313.15 K, x1 = 0.9447) was 1089.4 kg/m3, the mass density (318.15 K, x1 = 0.8294) was 1085.2 kg/m3 and the mass density (318.15 K, x1 = 0.852) was 1085.4 kg/m3. For the same compound, the mass density (318.15 K, x1 = 0.8822) was 1085.5 kg/m3, the mass density (318.15 K, x1 = 0.9125) was 1085.7 kg/m3 and the mass density (318.15 K, x1 = 0.9447) was 1085.9 kg/m3. For the same compound, the mass density (318.15 K, x1 = 1) was 1086.2 kg/m3.
In the case of `CC(O)C(=O)[O-].CCOCCn1cc[n+](C)c1` + O, the mass density (288.15 K, x1 = 0.8091) is reported as 1135.3 kg/m3, the mass density (288.15 K, x1 = 0.8366) is reported as 1135.5 kg/m3 and the mass density (288.15 K, x1 = 0.87) is reported as 1135.7 kg/m3. The mass density (288.15 K, x1 = 0.9014) was 1135.9 kg/m3, the mass density (288.15 K, x1 = 0.9386) was 1136.2 kg/m3 and the mass density (288.15 K, x1 = 1) was 1136.5 kg/m3. The mass density (293.15 K, x1 = 0.87) was 1132 kg/m3, the mass density (293.15 K, x1 = 0.9386) was 1132.5 kg/m3 and the mass density (293.15 K, x1 = 1) was 1132.8 kg/m3. The mass density (298.15 K, x1 = 0.8091) was 1127.8 kg/m3, the mass density (298.15 K, x1 = 0.8366) was 1128 kg/m3 and the mass density (298.15 K, x1 = 0.9014) was 1128.5 kg/m3. The mass density (298.15 K, x1 = 0.9386) was 1128.7 kg/m3, the mass density (298.15 K, x1 = 1) was 1129.1 kg/m3 and the mass density (303.15 K, x1 = 0.8091) was 1124.2 kg/m3. The mass density (303.15 K, x1 = 0.8366) was 1124.4 kg/m3, the mass density (303.15 K, x1 = 0.87) was 1124.6 kg/m3 and the mass density (303.15 K, x1 = 0.9014) was 1124.8 kg/m3. For the same compound, the mass density (303.15 K, x1 = 1) was 1125.4 kg/m3, the mass density (308.15 K, x1 = 0.9014) was 1121.2 kg/m3 and the mass density (308.15 K, x1 = 0.9386) was 1121.4 kg/m3. For the same compound, the mass density (308.15 K, x1 = 1) was 1121.8 kg/m3, the mass density (313.15 K, x1 = 0.8091) was 1116.8 kg/m3 and the mass density (313.15 K, x1 = 0.8366) was 1117 kg/m3. The mass density (313.15 K, x1 = 0.87) was 1117.3 kg/m3, the mass density (313.15 K, x1 = 0.9014) was 1117.5 kg/m3 and the mass density (313.15 K, x1 = 0.9386) was 1117.8 kg/m3. It also gave a mass density (313.15 K, x1 = 1) of 1118.2 kg/m3, a mass density (318.15 K, x1 = 0.8091) of 1113.2 kg/m3 and a mass density (318.15 K, x1 = 0.8366) of 1113.4 kg/m3. For the same compound, the mass density (318.15 K, x1 = 0.87) was 1113.7 kg/m3, the mass density (318.15 K, x1 = 0.9386) was 1114.1 kg/m3 and the mass density (318.15 K, x1 = 1) was 1114.5 kg/m3.
